A word on the EC50: it is the concentration needed to bring the measured effect to its halfway point. A higher EC50 goes with a need for much substance.

B1: PR007167 (bispecific antibody)
chain 1: QVQLVESGGGVVQPGRSLRLSCAASGFTFRSFGMHWVRQAPGKGLEWVAVISYDASNEYYADSVKGRFIISRDNSKDTLYLQMNSLRAGDTAVYYCAKGGGLRWYFAYWGQGTLVTVSSASTKGPSVFPLAPSSKSTSGGTAALGCLVKDYFPEPVTVSWNSGALTSGVHTFPAVLQSSGLYSLSSVVTVPSSSLGTQTYICNVNHKPSNTKVDKKVEPKSC
chain 2: EIVMTQSPATLSVSPGERATLSCRASQSISSNLGWYQQKPGQAPRLLIYGASTRATGIPARFSGSGSGTEFTLTISSLQSEDFAVYYCQQYQSWPPLTFGGGTKVEIKRTVAAPSVFIFPPSDEQLKSGTASVVCLLNNFYPREAKVQWKVDNALQSGNSQESVTEQDSKDSTYSLSSTLTLSKADYEKHKVYACEVTHQGLSSPVTKSFNRGECEVQLLESGGGLVQPGGSLRLSCAASGFTFSSYAMSWVRQAPGKGLEWVSAISGRGGSTFYADSVRGRFTISRDNSKNTLYLQMNSLRAEDTAMYYCVDGTTGTTDVDYWGQGTLVTVSS[letters of human IgG1 Fc with changes not shown]
B2: PR007166 (bispecific antibody)
light: EIVMTQSPATLSVSPGERATLSCRASQSISSNLGWYQQKPGQAPRLLIYGASTRATGIPARFSGSGSGTEFTLTISSLQSEDFAVYYCQQYQSWPPLTFGGGTKVEIKRTVAAPSVFIFPPSDEQLKSGTASVVCLLNNFYPREAKVQWKVDNALQSGNSQESVTEQDSKDSTYSLSSTLTLSKADYEKHKVYACEVTHQGLSSPVTKSFNRGEC
heavy: QVQLVESGGGVVQPGRSLRLSCAASGFTFRSFGMHWVRQAPGKGLEWVAVISYDASNEYYADSVKGRFIISRDNSKDTLYLQMNSLRAGDTAVYYCAKGGGLRWYFAYWGQGTLVTVSSASTKGPSVFPLAPSSKSTSGGTAALGCLVKDYFPEPVTVSWNSGALTSGVHTFPAVLQSSGLYSLSSVVTVPSSSLGTQTYICNVNHKPSNTKVDKKVEPKSCEVQLLESGGGLVQPGGSLRLSCAASGFTFSSYAMSWVRQAPGKGLEWVSAISGRGGSTFYADSVRGRFTISRDNSKNTLYLQMNSLRAEDTAMYYCVDGTTGTTDVDYWGQGTLVTVSS[letters of human IgG1 Fc with changes not shown]
B3: PR005189 (bispecific antibody)
chain 1: QVQLVESGGGVVQPGRSLRLSCAASGFTFRSFGMHWVRQAPGKGLEWVAVISYDASNEYYADSVKGRFIISRDNSKDTLYLQMNSLRAGDTAVYYCAKGGGLRWYFAYWGQGTLVTVSSASTKGPSVFPLAPSSKSTSGGTAALGCLVKDYFPEPVTVSWNSGALTSGVHTFPAVLQSSGLYSLSSVVTVPSSSLGTQTYICNVNHKPSNTKVDKKVEPKSC
chain 2: EIVMTQSPATLSVSPGERATLSCRASQSISSNLGWYQQKPGQAPRLLIYGASTRATGIPARFSGSGSGTEFTLTISSLQSEDFAVYYCQQYQSWPPLTFGGGTKVEIKRTVAAPSVFIFPPSDEQLKSGTASVVCLLNNFYPREAKVQWKVDNALQSGNSQESVTEQDSKDSTYSLSSTLTLSKADYEKHKVYACEVTHQGLSSPVTKSFNRGECEVQLVESGGGVVQPGGSLRLSCAASGFTFSNYAMTWVRQAPEKGLEWVSSISGSGVSTYYADSVKGRFTISRDNSKNTLYLQMTRLTAEDTAVYFCAKEGSSETDDHYYNVDVWGQGTTVTVSS[letters of human IgG1 Fc with changes not shown]
B4: PR005649 (bispecific antibody)
chain 1: QVQLVESGGGVVQPGRSLRLSCAASGFTFRSFGMHWVRQAPGKGLEWVAVISYDASNEYYADSVKGRFIISRDNSKDTLYLQMNSLRAGDTAVYYCAKGGGLRWYFAYWGQGTLVTVSSASTKGPSVFPLAPSSKSTSGGTAALGCLVKDYFPEPVTVSWNSGALTSGVHTFPAVLQSSGLYSLSSVVTVPSSSLGTQTYICNVNHKPSNTKVDKKVEPKSC
chain 2: EIVMTQSPATLSVSPGERATLSCRASQSISSNLGWYQQKPGQAPRLLIYGASTRATGIPARFSGSGSGTEFTLTISSLQSEDFAVYYCQQYQSWPPLTFGGGTKVEIKRTVAAPSVFIFPPSDEQLKSGTASVVCLLNNFYPREAKVQWKVDNALQSGNSQESVTEQDSKDSTYSLSSTLTLSKADYEKHKVYACEVTHQGLSSPVTKSFNRGECEPKSSDKTHTPPPPPEVQLVESGGGVVQPGGSLRLSCAASGFTFSNYAMTWVRQAPEKGLEWVSSISGSGVSTYYADSVKGRFTISRDNSKNTLYLQMTRLTAEDTAVYFCAKEGSSETDDHYYNVDVWGQGTTVTVSSERKCCVECPPCPAPEAAGGPSVFLFPPKPKDTLMISRTPEVTCVVVDVSHEDPEVKFNWYVDGVEVHNAKTKPREEQYNSTYRVVSVLTVLHQDWLNGKEYKCKVSNKALPAPIEKTISKAKGQPREPQVYTLPPSREEMTKNQVSLTCLVKGFYPSDIAVEWESNGQPENNYKTTPPVLDSDGSFFLYSKLTVDKSRWQQGNVFSCSVMHEALHNHYTQKSLSLSPGK
B5: PR005650 (bispecific antibody)
chain 1: QVQLVESGGGVVQPGRSLRLSCAASGFTFRSFGMHWVRQAPGKGLEWVAVISYDASNEYYADSVKGRFIISRDNSKDTLYLQMNSLRAGDTAVYYCAKGGGLRWYFAYWGQGTLVTVSSASTKGPSVFPLAPSSKSTSGGTAALGCLVKDYFPEPVTVSWNSGALTSGVHTFPAVLQSSGLYSLSSVVTVPSSSLGTQTYICNVNHKPSNTKVDKKVEPKSC
chain 2: EIVMTQSPATLSVSPGERATLSCRASQSISSNLGWYQQKPGQAPRLLIYGASTRATGIPARFSGSGSGTEFTLTISSLQSEDFAVYYCQQYQSWPPLTFGGGTKVEIKRTVAAPSVFIFPPSDEQLKSGTASVVCLLNNFYPREAKVQWKVDNALQSGNSQESVTEQDSKDSTYSLSSTLTLSKADYEKHKVYACEVTHQGLSSPVTKSFNRGECEVQLVESGGGVVQPGGSLRLSCAASGFTFSNYAMTWVRQAPEKGLEWVSSISGSGVSTYYADSVKGRFTISRDNSKNTLYLQMTRLTAEDTAVYFCAKEGSSETDDHYYNVDVWGQGTTVTVSS[letters of human IgG1 Fc with changes not shown]EVQLVESGGGVVQPGGSLRLSCAASGFTFSNYAMTWVRQAPEKGLEWVSSISGSGVSTYYADSVKGRFTISRDNSKNTLYLQMTRLTAEDTAVYFCAKEGSSETDDHYYNVDVWGQGTTVTVSS
B6: PR004279 (bispecific antibody)
chain 1: QVQLVESGGGVVQPGRSLRLSCAASGFTFRSFGMHWVRQAPGKGLEWVAVISYDASNEYYADSVKGRFIISRDNSKDTLYLQMNSLRAGDTAVYYCAKGGGLRWYFAYWGQGTLVTVSSASTKGPSVFPLAPSSKSTSGGTAALGCLVKDYFPEPVTVSWNSGALTSGVHTFPAVLQSSGLYSLSSVVTVPSSSLGTQTYICNVNHKPSNTKVDKKVEPKSC
chain 2: EIVMTQSPATLSVSPGERATLSCRASQSISSNLGWYQQKPGQAPRLLIYGASTRATGIPARFSGSGSGTEFTLTISSLQSEDFAVYYCQQYQSWPPLTFGGGTKVEIKRTVAAPSVFIFPPSDEQLKSGTASVVCLLNNFYPREAKVQWKVDNALQSGNSQESVTEQDSKDSTYSLSSTLTLSKADYEKHKVYACEVTHQGLSSPVTKSFNRGECEPKSSDKTHTPPPPPEVQLVESGGGVVQPGGSLRLSCAASGFTFSNYAMTWVRQAPEKGLEWVSSISGSGVSTYYADSVKGRFTISRDNSKNTLYLQMTRLTAEDTAVYFCAKEGSSETDDHYYNVDVWGQGTTVTVSS[letters of human IgG1 Fc with changes not shown]
B7: PR007165 (bispecific antibody)
light: EIVMTQSPATLSVSPGERATLSCRASQSISSNLGWYQQKPGQAPRLLIYGASTRATGIPARFSGSGSGTEFTLTISSLQSEDFAVYYCQQYQSWPPLTFGGGTKVEIKRTVAAPSVFIFPPSDEQLKSGTASVVCLLNNFYPREAKVQWKVDNALQSGNSQESVTEQDSKDSTYSLSSTLTLSKADYEKHKVYACEVTHQGLSSPVTKSFNRGEC
heavy: QVQLVESGGGVVQPGRSLRLSCAASGFTFRSFGMHWVRQAPGKGLEWVAVISYDASNEYYADSVKGRFIISRDNSKDTLYLQMNSLRAGDTAVYYCAKGGGLRWYFAYWGQGTLVTVSSASTKGPSVFPLAPSSKSTSGGTAALGCLVKDYFPEPVTVSWNSGALTSGVHTFPAVLQSSGLYSLSSVVTVPSSSLGTQTYICNVNHKPSNTKVDKKVEPKSCEVQLVESGGGVVQPGGSLRLSCAASGFTFSNYAMTWVRQAPEKGLEWVSSISGSGVSTYYADSVKGRFTISRDNSKNTLYLQMTRLTAEDTAVYFCAKEGSSETDDHYYNVDVWGQGTTVTVSS[letters of human IgG1 Fc with changes not shown]
B8: PR004278 (bispecific antibody)
light: EIVMTQSPATLSVSPGERATLSCRASQSISSNLGWYQQKPGQAPRLLIYGASTRATGIPARFSGSGSGTEFTLTISSLQSEDFAVYYCQQYQSWPPLTFGGGTKVEIKRTVAAPSVFIFPPSDEQLKSGTASVVCLLNNFYPREAKVQWKVDNALQSGNSQESVTEQDSKDSTYSLSSTLTLSKADYEKHKVYACEVTHQGLSSPVTKSFNRGEC
heavy: EVQLVESGGGVVQPGGSLRLSCAASGFTFSNYAMTWVRQAPEKGLEWVSSISGSGVSTYYADSVKGRFTISRDNSKNTLYLQMTRLTAEDTAVYFCAKEGSSETDDHYYNVDVWGQGTTVTVSSGGGGSGGGGSGGGGSQVQLVESGGGVVQPGRSLRLSCAASGFTFRSFGMHWVRQAPGKGLEWVAVISYDASNEYYADSVKGRFIISRDNSKDTLYLQMNSLRAGDTAVYYCAKGGGLRWYFAYWGQGTLVTVSSASTKGPSVFPLAPSSKSTSGGTAALGCLVKDYFPEPVTVSWNSGALTSGVHTFPAVLQSSGLYSLSSVVTVPSSSLGTQTYICNVNHKPSNTKVDKKV[letters of human IgG1 Fc with changes not shown]

For the first test, the target named is T1, human OX40 (human, UniProt P43489 29-277).
T1 chain: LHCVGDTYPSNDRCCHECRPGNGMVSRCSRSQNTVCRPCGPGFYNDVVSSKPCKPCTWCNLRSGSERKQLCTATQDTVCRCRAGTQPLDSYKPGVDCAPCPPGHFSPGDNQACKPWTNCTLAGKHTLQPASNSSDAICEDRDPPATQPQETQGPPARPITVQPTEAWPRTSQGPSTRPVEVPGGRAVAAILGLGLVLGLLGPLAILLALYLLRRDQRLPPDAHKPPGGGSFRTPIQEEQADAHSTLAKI
The experiment in a line: FACS.
Regarding B1, the concentration giving a half-maximal response (EC50) was determined as 11.3 nM.

In turn, B2 yielded an EC50 of 13.2 nM.

A further test deals with human 4-1BB (human, UniProt Q07011 24-255). In words: FACS. For orientation: A flow cytometer gives signals particle by particle.
Chain of UniProt Q07011 (Q07011 24-255): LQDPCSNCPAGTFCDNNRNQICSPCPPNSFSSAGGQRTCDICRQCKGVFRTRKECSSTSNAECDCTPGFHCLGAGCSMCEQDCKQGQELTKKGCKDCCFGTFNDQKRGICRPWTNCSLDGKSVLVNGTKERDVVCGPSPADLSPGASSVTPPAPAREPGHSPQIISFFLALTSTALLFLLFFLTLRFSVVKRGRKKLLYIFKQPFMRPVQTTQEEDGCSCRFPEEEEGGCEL
Regarding B3, the EC50 was 4.25 nM.

Take B4: the EC50 is 0.533 nM.

With B5, the EC50 was 0.531 nM.

Turning to B6, the response was half-maximal at 0.503 nM (EC50).

Molecule B7 gave an EC50 of 4 nM.

With B8, a half-maximal response (EC50) required 0.477 nM.

The values are drawn from patent publication US20230303698A1 (published 2023).
